Measurements published in publication PMC4336329 (PLoS ONE, 2015).
Hit rate of the full screen: of about 310,000 compounds, about 14,000 (4.5%) showed an effect of 50% or more. The effect is printed as a negative number. Some of the results follow.

Target: human ether-à-go-go-related gene (hERG) potassium channel (human, UniProt Q12809)
Assay: primary screen, population patch clamp on CHO cells stably expressing hERG
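Also: peak tail current of the secondary pulse compared with the same well before compound.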

human ether-à-go-go-related gene (hERG) potassium channel, sequence (Q12809 whole entry, looked up): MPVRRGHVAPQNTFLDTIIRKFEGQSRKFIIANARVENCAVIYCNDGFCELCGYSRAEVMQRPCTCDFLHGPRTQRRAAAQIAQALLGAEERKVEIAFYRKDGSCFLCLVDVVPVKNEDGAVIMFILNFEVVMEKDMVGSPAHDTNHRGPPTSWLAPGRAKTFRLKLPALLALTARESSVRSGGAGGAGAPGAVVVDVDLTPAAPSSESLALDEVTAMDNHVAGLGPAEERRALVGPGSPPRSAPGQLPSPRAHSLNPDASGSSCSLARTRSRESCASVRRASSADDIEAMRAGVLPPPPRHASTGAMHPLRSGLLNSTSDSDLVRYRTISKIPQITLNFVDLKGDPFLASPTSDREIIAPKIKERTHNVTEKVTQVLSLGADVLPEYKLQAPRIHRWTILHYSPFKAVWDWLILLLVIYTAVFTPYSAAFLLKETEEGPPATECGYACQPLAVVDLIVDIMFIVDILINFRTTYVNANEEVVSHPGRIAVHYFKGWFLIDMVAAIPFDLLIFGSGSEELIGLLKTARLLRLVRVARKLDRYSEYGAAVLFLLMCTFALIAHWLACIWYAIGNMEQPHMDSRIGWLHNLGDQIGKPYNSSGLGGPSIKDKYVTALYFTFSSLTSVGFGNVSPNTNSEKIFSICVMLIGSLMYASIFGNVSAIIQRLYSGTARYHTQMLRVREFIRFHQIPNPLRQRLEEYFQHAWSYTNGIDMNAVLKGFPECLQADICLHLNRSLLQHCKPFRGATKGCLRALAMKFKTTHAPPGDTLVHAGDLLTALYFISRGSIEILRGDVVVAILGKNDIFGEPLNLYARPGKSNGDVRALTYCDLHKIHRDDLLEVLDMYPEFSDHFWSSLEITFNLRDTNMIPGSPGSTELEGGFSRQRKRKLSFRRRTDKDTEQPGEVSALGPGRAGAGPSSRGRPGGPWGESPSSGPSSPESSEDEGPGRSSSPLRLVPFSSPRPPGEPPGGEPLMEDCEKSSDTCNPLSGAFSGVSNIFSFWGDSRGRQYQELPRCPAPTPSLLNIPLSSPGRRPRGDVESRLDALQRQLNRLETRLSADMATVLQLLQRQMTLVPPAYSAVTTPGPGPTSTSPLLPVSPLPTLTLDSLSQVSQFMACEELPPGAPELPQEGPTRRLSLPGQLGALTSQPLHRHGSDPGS

Q: With `CCn1c2ccccc2c2cc(NC(=O)COC(=O)c3ccccc3Br)ccc21` as the compound, how does the “hERG current change (%, negative = inhibition) at 10uM” value read?
A: 14%

Q: Which “hERG current change (%, negative = inhibition) at 10uM” value does the source give for `CC[C@H](C)[C@H](NC(=O)c1ccccc1)C(=O)NC(CC(=O)O)c1ccc(F)cc1` (some centres unmarked) here?
A: 29.8%

Q: With `Cc1noc(C)c1C(=O)NCc1ccccc1Br` as the compound, how does the “hERG current change (%, negative = inhibition) at 10uM” value read?
A: 13.4%

Q: `CCOC(=O)c1c(C)[nH]c(C(=O)OC)c1CCC(=O)OC` was tested. Which “hERG current change (%, negative = inhibition) at 10uM” value did it give?
A: 8.36%

Q: For `O=C(NCCCn1ccnc1)c1ccc(Br)o1`, which “hERG current change (%, negative = inhibition) at 10uM” value is on record?
A: 3.98%

Q: How did the “hERG current change (%, negative = inhibition) at 10uM” value turn out when `N#C/C(=C\c1ccco1)C(=O)NCc1ccccc1` was run?
A: 4.87%

Q: With `O=C(Nc1ccc(S(=O)(=O)N2CCCCC2)cc1)C1CCCCC1` as the compound, how does the “hERG current change (%, negative = inhibition) at 10uM” value read?
A: -4.39%

Q: How did the “hERG current change (%, negative = inhibition) at 10uM” value turn out when `O=C(O)c1cc(S(=O)(=O)NCC2CCCO2)ccc1Cl` (centres unmarked) was run?
A: -1.74%

Q: `Cn1nnnc1SCC(=O)c1ccco1` was tested. Which “hERG current change (%, negative = inhibition) at 10uM” value did it give?
A: 8.25%

Q: How did the “hERG current change (%, negative = inhibition) at 10uM” value turn out when `Cc1nn(CC(=O)Nc2ccc(Br)cc2F)c(=O)c2cccn12` was run?
A: -13.4%

Q: For `Cc1ccc(-n2c(COc3c(C)cccc3C)nnc2SCC(=O)Nc2nccs2)cc1`, which “hERG current change (%, negative = inhibition) at 10uM” value is on record?
A: -7.46%

Q: With `CCN1C(=O)N[C@@H](c2ccccc2)C(C(=O)OC)=C1C` as the compound, how does the “hERG current change (%, negative = inhibition) at 10uM” value read?
A: -1.67%

Q: For `Cc1ccc(/C=N/NC(=O)CSc2nc3nc(C)cc(C)n3n2)cc1`, which “hERG current change (%, negative = inhibition) at 10uM” value is on record?
A: -19.3%

Q: With `Nc1c2c(nc3ccccc13)CCC2.O=C(O)/C=C/C(=O)O` as the compound, how does the “hERG current change (%, negative = inhibition) at 10uM” value read?
A: -18.2%

Q: For `FC(F)Sc1nc(-c2ccccc2)c(-c2ccccc2)n1C(F)F`, which “hERG current change (%, negative = inhibition) at 10uM” value is on record?
A: -0.303%

Q: For `Cc1ccc(C)c(NC(=O)CCCCCN2C(=O)[C@@H]3Cc4ccccc4CN3C2=O)c1`, which “hERG current change (%, negative = inhibition) at 10uM” value is on record?
A: -16.8%

Q: With `O=C(O)c1cc(NC(=O)c2cccc(N3C(=O)c4ccccc4C3=O)c2)cc(C(=O)O)c1` as the compound, how does the “hERG current change (%, negative = inhibition) at 10uM” value read?
A: -2.06%

Q: With `CC(C)C(NC(=O)C(c1ccccc1)c1ccccc1)c1nc2ccccc2[nH]1` (centres unmarked) as the compound, how does the “hERG current change (%, negative = inhibition) at 10uM” value read?
A: 14.5%

Q: How did the “hERG current change (%, negative = inhibition) at 10uM” value turn out when `Cc1nc(=O)c(-c2ccccc2)c(C)n1-c1ccccc1Cl` was run?
A: -4.38%

Q: Which “hERG current change (%, negative = inhibition) at 10uM” value does the source give for `COC(=O)Cn1c(C)c(/C=C/c2cc[n+](C)cc2)c2ccccc21.[I-]` here?
A: 9.71%

Q: How did the “hERG current change (%, negative = inhibition) at 10uM” value turn out when `O=C1c2ccccc2C(=O)N1c1ncccn1` was run?
A: 10.7%

Q: For `COc1ccc(S(=O)(=O)N2CCN(C(=O)c3sccc3-c3ccccc3)CC2)cc1`, which “hERG current change (%, negative = inhibition) at 10uM” value is on record?
A: -29.5%

Q: `O=C(NC1CCCc2ccccc21)C1CCN(c2c3c(nc4ncnn24)CCC3)CC1` (centres unmarked) was tested. Which “hERG current change (%, negative = inhibition) at 10uM” value did it give?
A: -31.3%

Q: For `C=CCn1c(SCc2nc3scc(-c4ccccc4)c3c(=O)[nH]2)nnc1-c1ccccc1F`, which “hERG current change (%, negative = inhibition) at 10uM” value is on record?
A: -26.3%

Q: Which “hERG current change (%, negative = inhibition) at 10uM” value does the source give for `COc1ccc2[nH]c(=O)c(CN(C(=O)c3cccnc3)c3cccc(C)c3)cc2c1` here?
A: 11.5%

Q: With `CCn1nc(C)c(CNC(=O)c2cc(COc3cncc(Cl)c3)on2)c1C` as the compound, how does the “hERG current change (%, negative = inhibition) at 10uM” value read?
A: -2.83%

Q: How did the “hERG current change (%, negative = inhibition) at 10uM” value turn out when `O=C1C(=O)N(CCCn2ccnc2)C(c2cccc(Br)c2)/C1=C(\O)c1ccc2c(c1)OCCO2` (centres unmarked) was run?
A: -0.29%

Q: For `Cn1c(=O)cc(OCCCC(=O)NCc2ccco2)c2ccccc21`, which “hERG current change (%, negative = inhibition) at 10uM” value is on record?
A: -2.62%

Q: `Cc1noc(C)c1COC(=O)c1ccc(F)c(S(=O)(=O)N2CCOCC2)c1` was tested. Which “hERG current change (%, negative = inhibition) at 10uM” value did it give?
A: -8.52%

Q: Which “hERG current change (%, negative = inhibition) at 10uM” value does the source give for `CCCCOCCCNC(=O)c1ccc([N+](=O)[O-])c(C)c1` here?
A: -31.2%

Q: For `CCc1c(C)nc2cc(-c3ccc(OC)c(OC)c3)nn2c1NCC1CC1`, which “hERG current change (%, negative = inhibition) at 10uM” value is on record?
A: -22.7%

Q: Which “hERG current change (%, negative = inhibition) at 10uM” value does the source give for `CC1CCCN(c2ccc(C(=O)NCc3cccs3)cn2)C1` (centres unmarked) here?
A: -12.8%

Q: `CC1CCC(N(CCCN)Cc2ccco2)CC1C` (centres unmarked) was tested. Which “hERG current change (%, negative = inhibition) at 10uM” value did it give?
A: -5.49%

Q: `Cc1ccc2nc(-c3ccccc3)cc(C(=O)NCC(c3ccco3)N(C)C)c2c1` (centres unmarked) was tested. Which “hERG current change (%, negative = inhibition) at 10uM” value did it give?
A: -28.6%

Q: For `O=C(CSc1n[nH]c(-c2ccccn2)n1)Nc1ccccc1`, which “hERG current change (%, negative = inhibition) at 10uM” value is on record?
A: -6.86%

Q: For `Cc1ccc(CCC(=O)Nc2ccccc2F)s1`, which “hERG current change (%, negative = inhibition) at 10uM” value is on record?
A: 4.06%

Q: For `CCOc1ccccc1NC(=O)c1ccccc1N(C)S(C)(=O)=O`, which “hERG current change (%, negative = inhibition) at 10uM” value is on record?
A: 13.9%

Q: Which “hERG current change (%, negative = inhibition) at 10uM” value does the source give for `CCOc1ccc(CNCCc2ccc(S(N)(=O)=O)cc2)cc1.Cl` here?
A: -70.1%

Q: `CC1CN(c2nc3ccccc3nc2SCC(=O)Nc2ccc(F)cc2)CC(C)O1` (centres unmarked) was tested. Which “hERG current change (%, negative = inhibition) at 10uM” value did it give?
A: 3.8%

Q: `NC(=O)c1ccccc1NS(=O)(=O)c1cccs1` was tested. Which “hERG current change (%, negative = inhibition) at 10uM” value did it give?
A: 14.4%

Q: How did the “hERG current change (%, negative = inhibition) at 10uM” value turn out when `COc1ccc(CN=CC2=C(O)CC(C)(C)CC2=O)cc1` was run?
A: 0.178%

Q: For `CC(=O)C1=C(C)OC(N)=C(C(=O)OC(C)C)C12C(=O)Nc1ccccc12` (centres unmarked), which “hERG current change (%, negative = inhibition) at 10uM” value is on record?
A: -1.44%

Q: Which “hERG current change (%, negative = inhibition) at 10uM” value does the source give for `O=C(NCc1ccccn1)c1ccc(N2CCCC2=O)cc1` here?
A: 10.6%

Q: `Cc1cccc(CNCCc2c[nH]c3ccccc23)c1.O=C(O)C(=O)O` was tested. Which “hERG current change (%, negative = inhibition) at 10uM” value did it give?
A: -30.6%
